Data: the RNAGym collection of RNA variant scans (doi:10.1073/pnas.2313332121)
Variants at the floor of the assay are shown more often than the library holds them.

B1: TPR 5TU (parent)
chain: GGAUCUUCUCGAUCUAACAAAAAAGACAAAUCUGCCACAAAGCUUGAGAGCAUCUUCGGAUGCAGAGGCGGCAGCCUUCGGUGGCGCGAUAGCGCCAACGUUCUCAACUAUGACACGCAAAACGCGUGCUCCGUUGAAUGGAGUUUAUCAUG

Variants of: B1
Experiment: polymerase ribozyme fitness, log enrichment relative to wild type (log ratio); higher = more active; in vitro selection for triplet polymerase activity
In short: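 A heterodimeric triplet polymerase ribozyme had each of its subunits mutagenized by PCR into a library, which was transcribed. One round of in vitro selection, done in triplicate, annealed each library with a biotinylated primer, its partner subunit and triplets, then incubated it frozen at −7 °C before gel excision of extended constructs, streptavidin-bead capture and RT-PCR. Fitness is the logarithm of genotype enrichment relative to wild-type enrichment, based on Illumina sequencing of inputs and outputs and inverse-variance-weighted replicate averages. A base-2 logarithm is used, and genotypes were kept only with ≥10 input reads and ≥1 read per output.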

Polymerase ribozyme fitness (log ratio), -4:
C35U C93A A120C G126A A150U

Polymerase ribozyme fitness (log ratio), -4.19:
G34U C95G A115G C116U G140C U151A

Polymerase ribozyme fitness (log ratio), -3.48:
C35U A47G C99G G152A

Polymerase ribozyme fitness (log ratio), -4.02:
C35G A89C C96G

Polymerase ribozyme fitness (log ratio), -3.9:
C35U C36A U55G U127A

Polymerase ribozyme fitness (log ratio), ≤ -4.2:
G34U U77G C87A A113C
C35A G83U
C35U C93G C125U A137U
C35A C85G G92A A115C A122U
C35A C85U C99U U148C
C35U A41C G81A U102G C108G A110U
C35U C79A G81U C93A U102A U127A
C35U C51U A66C C76U G143U
C35A C36U U77C A106U A147G
C35U A49C U53A G67A C87A A115G G141A C149G
C35A G68A C96G A97G C116U U146G
G34C C72U G86U G88C A150G
C35U C75A G86A A107G G140U
G34A C93G C95A U111G
C35G C93G C96G C123U C129A
C35U A47U C105G U139A
C35G C57U U61A
C35A G42U G128A G141C
C35G G92U C103G
C35G C93U G124U G143C
G34U C51A G84C
C35G G80C A122C
G34A G58C A113C G133U A138G
C35A C75U G84A G124A
C35G C38U C85A C99A C103G U127C U135C A147U
C35G C75G G88A C108U C123G G133U G141A
C35G G58C C125U A147C
G34A G50A G68U G71A C76A C85A C125U
G34U G67A C76U C85A
G34C C76A C95U A142C
C35U A73U G140U U146A
C35U A89U C95A G126A A142C
C35A C36A A52G A60C C132A
G34U A49G C93A C99A
C35U A41C U53A C75G C114U G136U
G34U A47C A52G G58A G80U U90C A91U C105A C108U
G34A G74C
C35U A52C C76A A120U C125G A137G
C35A U55G A73G G81U G86A
G34A A107U
U33G U55A G86U A97U G126C C132G
C35A C69G C85A C99G A122U C125A U146A U148A
G34A G50C G92U
G34U G74A C96A G126A
U33G G88A A119U G126U A138C
C35G A39U C75G A89U C96U A121C
C35A A60C
C35U A91U U127C A150U
G34A G50U A52G G59C A91G G94A G117A A119G G143C
C35A U55A U61A A91G C118U A120G G141C
C35A A52C C93U A97U A106U U145G C149A
C35A G48A A60C C76U G92A A138U
C35A G100A C125G C131G
C35A U55A C85G G140C
C35U C93U U134A U139G G143A
C35G G59A G62C G88U
C35U A49G G70A C95G C105A
G34C U78C A91G U146A
C35U A47C A60U C103A
C35G U82G G83A C93G
G34A C35U A107G C118A U139A G140U
C35A C76U G83A A98U C105A G124U C129U
C35U A40C C54A U90C A137G
C35G G83C A89G

Polymerase ribozyme fitness (log ratio), -3.29:
C35U A52G A60C A121U

Polymerase ribozyme fitness (log ratio), -3.32:
C35A U146A

Polymerase ribozyme fitness (log ratio), -3.5:
G34A C85U U101G

Polymerase ribozyme fitness (log ratio), -3.51:
C35A G126A

Polymerase ribozyme fitness (log ratio), -2.37:
G34U G94A

Polymerase ribozyme fitness (log ratio), -1.54:
C35U A115U

Polymerase ribozyme fitness (log ratio), -3.92:
C35G A115G

Polymerase ribozyme fitness (log ratio), -3.78:
U33G U53A G58A

Polymerase ribozyme fitness (log ratio), -3.72:
U33G U61A

Polymerase ribozyme fitness (log ratio), -3.74:
U33G U56C G81C C95U

Polymerase ribozyme fitness (log ratio), -3.93:
C35A G83C

Polymerase ribozyme fitness (log ratio), -1.5:
C35U C76U C99U

Polymerase ribozyme fitness (log ratio), -4.18:
C35G C87U C118U

Polymerase ribozyme fitness (log ratio), -2.91:
G34U C96G
